Out of some 420,000 compounds screened, about 50,000 (12%) were called active. Inconclusive means that the source gave no clear call. Such entries were picked first, then a sample of the others. Calls come from the whole dose curve; as a rule, active = well fitted inhibition curve with a large enough effect; inconclusive = small, poorly fitted or top-dose-only effect; inactive = flat fitted curve, though single readings scatter. Potencies of inconclusive entries are left out as doubtful fits.
Test: qHTS for Inhibitors of human tyrosyl-DNA phosphodiesterase 1 (TDP1): qHTS in cells in presence of CPT; note: nearly all actives have a fitted effect of over 55% in size
Details: chicken DT40 Tdp1-/-;hTDP1 cells + 20 nM CPT, ATP luminescence, 48 h; activity change, negative = growth inhibition: at 46.2 µM (top of the series) unless noted
Procedure, shortened: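 Chicken DT40 Tdp1-/- cells complemented with human TDP1, 400 cells/well, exposed to compounds plus 20 nM camptothecin for at least 48 h at 37 C; viability read as ATP content by CellTiter-Glo luminescence.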
% is set by controls: 0 for no effect and ±100 for the full control effect; potency is the fitted concentration of half-maximal effect; tags give direction and shape of the fitted curve.

Structure (SMILES) | Potency | activity change, negative = growth inhibition
CCOc1ccccc1N1CCN(C(=O)c2ccc3nc(N)sc3c2)CC1 | inactive | 
CCC1CN(C(=O)N2CCC(C(=O)NCCc3cc(OC)ccc3OC)CC2)c2ccccc2O1 (stereo not given) | active: 16.4 µM | 
O=C(CN1C(=O)c2ccccc2C1=O)Nc1cccnc1 | inactive | 
CCOc1ccccc1-c1nc(-c2cccc(Br)c2)no1 | inactive | 
Cc1c(Cc2ccc3c(c2)OCO3)sc(NC(=O)c2ccc3ccccc3c2)c1C(N)=O | inconclusive [inhibitor, single point] | 
O=C(c1cccs1)N(c1ccc(Br)cc1)C1C=CS(=O)(=O)C1 (stereo not given) | inconclusive [inhibitor, partial curve, poor fit] | 
COc1ccc(C(=O)NC2CCCN(Cc3ccccc3F)C2)c(OC)c1OC (stereo not given) | inconclusive [inhibitor, partial curve] | 
Cc1cn(CC(=O)NCCCn2ccnc2)c(=O)[nH]c1=O | inactive | 
COC(=O)Cc1cnc(NC(=O)CSc2nc(C(C)C)cc(=O)[nH]2)s1 | inactive | 
O=C1OC(CC(=O)N(Cc2nnc(-c3ccc(Cl)cc3)o2)C2CC2)c2ccccc21 (stereo not given) | inconclusive [inhibitor, single point] | 
COc1cccc(-n2cc(C(=O)Nc3cccc(C(F)(F)F)c3)c3ccccc3c2=O)c1 | active: 16.4 µM | 
CCn1c(CN2CCOCC2)nc2cc(NC(=O)c3ccccc3[N+](=O)[O-])ccc21 | inactive | 
CCN(c1cccc(C(F)(F)F)c1)S(=O)(=O)c1ccc2c(c1)CCN2C(=O)C1CC1 | active: 15.8 µM | 
COc1cc(OC)cc(OC2(C)CCN(Cc3ccc(OC(C)C)cc3)C2)c1 (stereo not given) | active: 25.9 µM | 
Cc1ccc(S(=O)(=O)NNC(=O)c2cccs2)c(C)c1 | inactive | 
CCCC(=O)Nc1ccc(-c2csc(N/N=C\c3ccncc3)n2)cc1 | active: 10.3 µM | 
Cc1cc([N+](=O)[O-])ccc1NC(=O)CSc1nncn1-c1ccccn1 |  | inconclusive: -33.2% [inhibitor]
CC1CCN(C(=O)Cn2c(=O)n(CCCCCC(=O)NCc3ccccc3Cl)c(=O)c3sccc32)CC1 | inconclusive [inhibitor, single point] | 
CCOC(=O)C1CCN(Cc2nc3ccc(Cl)cc3n2CCO)CC1 | active: 20.6 µM | 
CC/C(=N\Nc1ccc([N+](=O)[O-])cc1)c1ccccc1 | inconclusive [inhibitor, single point] | 
CCOc1ccc(Nc2cc(Nc3ccccc3OCC)nc(C=C(C#N)C#N)n2)cc1 | inactive | 
C#CCNC(=O)C1=C[C@@H](c2csc3ccccc23)[C@H](CCCO)[C@@H](OCC)O1 | inactive | 
COc1ccc(NC(=O)Nc2ccc(Br)c(C)c2)cc1 | inactive | 
Cc1cccc2c1NC(=O)C2(O)N1CCCC(C)C1 (stereo not given) | inactive | 
Cc1ccc(Cl)cc1Nc1nn2c(=O)c3ccc(C(=O)Nc4ccc(F)cc4)cc3nc2s1 | active: 3.66 µM | 

Structure (SMILES) | Potency | activity change, negative = growth inhibition
Cc1ccc2nc(NC(=O)C3CCN(S(=O)(=O)c4cccc5nsnc45)CC3)sc2c1 | inconclusive [inhibitor, single point] | 
O=C(Nc1cccc(NC(=O)c2ccc([N+](=O)[O-])o2)c1)c1ccco1 | active: 5.8 µM | 
O=C(O)c1ccccc1C(=O)c1ccc2c(c1)N(Cc1ccc(Cl)c(Cl)c1)C(=O)CO2 | inactive | 
COCCCNC(=O)C[C@H]1C[C@H](C(=O)N(C(C)C)C(C)C)[C@@]2(C)c3[nH]c4ccc(Cl)cc4c3CCN2C1=O | active: 11.6 µM | 
CCCCNC(=O)c1cn(-c2ccc(OCC)cc2)c(=O)c2cc(OC)c(OC)cc12 | inconclusive [inhibitor, single point] | 
CN1CCN(c2ccc(CNC(=O)C3Cc4c(-c5ccc6c(c5)OCO6)ccnc4O3)cc2)CC1 (stereo not given) | inactive | 
Cc1cccc(NC2=Nc3ccccc3N3C2=Nc2c(c(C)nn2-c2ccccc2)C3c2ccc(O)c(O)c2)c1 (stereo not given) | inconclusive [inhibitor, single point] | 
COc1ccccc1NC(=O)c1oc2ccccc2c1C | inconclusive [inhibitor, single point] | 
Cc1cccc(S(=O)(=O)Nc2ccc(-c3cn4ccccc4n3)cc2)c1 | inactive | 
CCOC(=O)C1CCN(CCC(=O)Nc2cccc(C)c2)CC1 | inactive | 
CC1CN(S(=O)(=O)c2ccc(CN3C(=O)c4cccnc4C3=O)s2)c2ccccc2O1 (stereo not given) | inactive | 
O=C(NCc1cccnc1)c1cccc2c1C(=O)N(C1CCCCC1)C2 | inactive | 
O=C(c1cnn2c1NC(c1ccc(Br)cc1)CC2C(F)(F)F)N1CCN(C23CC4CC(CC(C4)C2)C3)CC1 (stereo not given) | inconclusive [inhibitor, single point] | 
CC1=C(C(=O)Nc2ccccc2)C(c2ccccc2C)n2nc(SCC(=O)c3ccc(C)cc3)nc2N1 (stereo not given) | active: 5.8 µM | 
CC1CCC(NC(=O)CN2C(=O)C3CC=CCC3C2=O)CC1 (stereo not given) | inactive | 
Nc1ncnc2c1ncn2[C@@H]1O[C@H](CNCc2ccc(OCC(=O)Nc3nccs3)cc2)[C@@H](O)[C@H]1O | inactive | 
CC1CCc2sc(NC(=S)NC(=O)c3ccccc3)c(C#N)c2C1 (stereo not given) | inactive | 
Cc1oc(-c2cccc(Cl)c2)nc1CN1CCC(C(=O)N2CCN(c3ccccn3)CC2)CC1 | active: 23.1 µM | 
O=C([O-])c1cc(-c2ccccc2)cc(-c2ccccc2)[n+]1CCc1ccc(Cl)cc1 | active: 4.61 µM | 
CCCCCCSc1nnc(-c2cnn(-c3ccccc3)c2-n2cccc2)n1C | inconclusive [inhibitor, single point] | 
Cc1cc(O)ccc1Nc1cc(-c2cccc(N(C)C)c2)ncn1 | inconclusive [inhibitor, single point] | 
COC(=O)c1ccc(CSc2nc(C)nc3c2c(=O)n(C)c(=O)n3C)o1 | inactive | 
CCOC(=O)c1ccc(NC2c3ncccc3C(=O)N2Cc2ccc(F)cc2)cc1 (stereo not given) | inconclusive [inhibitor, partial curve] | 
C/C(N)=C(/C#N)C(=O)COC(=O)c1cc2c(s1)CCC(C)C2 (stereo not given) | inactive | 
CCOc1ccc(CN2CCN(CC3CC3)CC2CCO)cc1 (stereo not given) | inactive | 

— PubChem BioAssay AID686979 (National Center for Advancing Translational Sciences (NCATS), 2013)
